According to patent US9340590B2 (priority 2011, dated 2016):
Where two headings read alike, the source gives them in different places. At least one structure is not confirmed: it was looked up by name or label, or the drawing left a doubt. Positions of bridges follow the written chain, without caps; N, C: chain ends. Non-standard residues stand in square brackets, D forms with d. Residues, ends and D or L forms follow the SMILES beside them. NMeW = CN[C@@H](Cc1c[nH]c2ccccc12)C(=O)O

Columns and labels:
Type in all cases: cell-based
[1] = target: hNav1.7 (Homo sapiens, UniProt Q15858); details: IonWorks Quattro, read-out: IWQ Use Nav1.7
[2] = target: hNav1.5 (Homo sapiens, UniProt Q14524); details: IonWorks Quattro, read-out: IWQ Use Nav1.5
[3] = target: hNav1.3 (Homo sapiens, UniProt Q9NY46); details: IonWorks Quattro, read-out: IWQ Use Nav1.3

Sequence of hNav1.7 (Q15858 whole entry, looked up): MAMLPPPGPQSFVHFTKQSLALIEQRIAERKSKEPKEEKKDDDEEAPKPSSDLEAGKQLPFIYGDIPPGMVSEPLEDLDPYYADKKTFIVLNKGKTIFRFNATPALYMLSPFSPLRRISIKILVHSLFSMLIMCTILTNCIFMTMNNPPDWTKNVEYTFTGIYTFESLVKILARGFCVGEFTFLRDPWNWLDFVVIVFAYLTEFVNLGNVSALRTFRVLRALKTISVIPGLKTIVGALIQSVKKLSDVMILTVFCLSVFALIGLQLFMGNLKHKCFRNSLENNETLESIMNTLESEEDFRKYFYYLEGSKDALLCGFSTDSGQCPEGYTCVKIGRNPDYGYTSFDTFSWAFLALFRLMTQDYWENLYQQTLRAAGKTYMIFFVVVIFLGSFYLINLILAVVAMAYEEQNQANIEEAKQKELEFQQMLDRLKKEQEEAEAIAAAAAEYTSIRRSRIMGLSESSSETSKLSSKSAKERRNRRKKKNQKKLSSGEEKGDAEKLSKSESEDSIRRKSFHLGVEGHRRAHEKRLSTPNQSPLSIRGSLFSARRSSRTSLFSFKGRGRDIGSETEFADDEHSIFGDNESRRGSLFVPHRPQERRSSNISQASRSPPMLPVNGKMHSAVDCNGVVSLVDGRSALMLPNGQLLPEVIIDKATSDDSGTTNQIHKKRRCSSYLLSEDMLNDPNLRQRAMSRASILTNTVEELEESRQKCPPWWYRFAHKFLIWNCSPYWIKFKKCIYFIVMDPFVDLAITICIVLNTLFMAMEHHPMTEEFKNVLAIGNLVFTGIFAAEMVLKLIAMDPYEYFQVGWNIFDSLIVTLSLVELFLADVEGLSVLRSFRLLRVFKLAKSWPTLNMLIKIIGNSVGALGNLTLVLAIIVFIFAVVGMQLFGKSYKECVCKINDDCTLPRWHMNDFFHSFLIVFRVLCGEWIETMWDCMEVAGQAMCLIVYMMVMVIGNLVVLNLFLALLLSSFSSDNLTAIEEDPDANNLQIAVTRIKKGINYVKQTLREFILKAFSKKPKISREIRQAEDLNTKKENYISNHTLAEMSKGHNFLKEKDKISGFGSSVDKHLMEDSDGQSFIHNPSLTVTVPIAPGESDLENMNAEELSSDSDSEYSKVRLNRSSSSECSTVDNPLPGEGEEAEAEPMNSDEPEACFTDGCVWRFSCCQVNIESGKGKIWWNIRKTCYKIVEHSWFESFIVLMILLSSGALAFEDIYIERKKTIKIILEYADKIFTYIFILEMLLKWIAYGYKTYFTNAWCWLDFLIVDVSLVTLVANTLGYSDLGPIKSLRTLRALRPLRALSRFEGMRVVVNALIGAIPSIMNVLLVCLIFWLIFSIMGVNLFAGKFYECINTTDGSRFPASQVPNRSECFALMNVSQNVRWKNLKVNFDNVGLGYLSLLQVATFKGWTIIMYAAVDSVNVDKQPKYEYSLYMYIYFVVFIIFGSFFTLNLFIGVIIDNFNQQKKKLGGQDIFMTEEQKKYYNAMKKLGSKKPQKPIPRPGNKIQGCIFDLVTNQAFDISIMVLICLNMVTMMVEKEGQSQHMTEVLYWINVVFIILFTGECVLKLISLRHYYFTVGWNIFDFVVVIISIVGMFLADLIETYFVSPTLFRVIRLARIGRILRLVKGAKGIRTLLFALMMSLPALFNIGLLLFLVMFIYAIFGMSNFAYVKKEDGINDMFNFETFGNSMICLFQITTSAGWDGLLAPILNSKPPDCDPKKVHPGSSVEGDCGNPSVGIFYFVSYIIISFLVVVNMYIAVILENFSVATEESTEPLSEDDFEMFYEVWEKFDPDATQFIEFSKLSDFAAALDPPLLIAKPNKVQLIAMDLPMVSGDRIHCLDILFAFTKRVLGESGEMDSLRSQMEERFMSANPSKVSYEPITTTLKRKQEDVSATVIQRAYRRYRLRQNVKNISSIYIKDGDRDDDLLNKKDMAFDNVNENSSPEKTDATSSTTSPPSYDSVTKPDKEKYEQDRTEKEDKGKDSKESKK
Sequence of hNav1.5 (Q14524 whole entry, looked up): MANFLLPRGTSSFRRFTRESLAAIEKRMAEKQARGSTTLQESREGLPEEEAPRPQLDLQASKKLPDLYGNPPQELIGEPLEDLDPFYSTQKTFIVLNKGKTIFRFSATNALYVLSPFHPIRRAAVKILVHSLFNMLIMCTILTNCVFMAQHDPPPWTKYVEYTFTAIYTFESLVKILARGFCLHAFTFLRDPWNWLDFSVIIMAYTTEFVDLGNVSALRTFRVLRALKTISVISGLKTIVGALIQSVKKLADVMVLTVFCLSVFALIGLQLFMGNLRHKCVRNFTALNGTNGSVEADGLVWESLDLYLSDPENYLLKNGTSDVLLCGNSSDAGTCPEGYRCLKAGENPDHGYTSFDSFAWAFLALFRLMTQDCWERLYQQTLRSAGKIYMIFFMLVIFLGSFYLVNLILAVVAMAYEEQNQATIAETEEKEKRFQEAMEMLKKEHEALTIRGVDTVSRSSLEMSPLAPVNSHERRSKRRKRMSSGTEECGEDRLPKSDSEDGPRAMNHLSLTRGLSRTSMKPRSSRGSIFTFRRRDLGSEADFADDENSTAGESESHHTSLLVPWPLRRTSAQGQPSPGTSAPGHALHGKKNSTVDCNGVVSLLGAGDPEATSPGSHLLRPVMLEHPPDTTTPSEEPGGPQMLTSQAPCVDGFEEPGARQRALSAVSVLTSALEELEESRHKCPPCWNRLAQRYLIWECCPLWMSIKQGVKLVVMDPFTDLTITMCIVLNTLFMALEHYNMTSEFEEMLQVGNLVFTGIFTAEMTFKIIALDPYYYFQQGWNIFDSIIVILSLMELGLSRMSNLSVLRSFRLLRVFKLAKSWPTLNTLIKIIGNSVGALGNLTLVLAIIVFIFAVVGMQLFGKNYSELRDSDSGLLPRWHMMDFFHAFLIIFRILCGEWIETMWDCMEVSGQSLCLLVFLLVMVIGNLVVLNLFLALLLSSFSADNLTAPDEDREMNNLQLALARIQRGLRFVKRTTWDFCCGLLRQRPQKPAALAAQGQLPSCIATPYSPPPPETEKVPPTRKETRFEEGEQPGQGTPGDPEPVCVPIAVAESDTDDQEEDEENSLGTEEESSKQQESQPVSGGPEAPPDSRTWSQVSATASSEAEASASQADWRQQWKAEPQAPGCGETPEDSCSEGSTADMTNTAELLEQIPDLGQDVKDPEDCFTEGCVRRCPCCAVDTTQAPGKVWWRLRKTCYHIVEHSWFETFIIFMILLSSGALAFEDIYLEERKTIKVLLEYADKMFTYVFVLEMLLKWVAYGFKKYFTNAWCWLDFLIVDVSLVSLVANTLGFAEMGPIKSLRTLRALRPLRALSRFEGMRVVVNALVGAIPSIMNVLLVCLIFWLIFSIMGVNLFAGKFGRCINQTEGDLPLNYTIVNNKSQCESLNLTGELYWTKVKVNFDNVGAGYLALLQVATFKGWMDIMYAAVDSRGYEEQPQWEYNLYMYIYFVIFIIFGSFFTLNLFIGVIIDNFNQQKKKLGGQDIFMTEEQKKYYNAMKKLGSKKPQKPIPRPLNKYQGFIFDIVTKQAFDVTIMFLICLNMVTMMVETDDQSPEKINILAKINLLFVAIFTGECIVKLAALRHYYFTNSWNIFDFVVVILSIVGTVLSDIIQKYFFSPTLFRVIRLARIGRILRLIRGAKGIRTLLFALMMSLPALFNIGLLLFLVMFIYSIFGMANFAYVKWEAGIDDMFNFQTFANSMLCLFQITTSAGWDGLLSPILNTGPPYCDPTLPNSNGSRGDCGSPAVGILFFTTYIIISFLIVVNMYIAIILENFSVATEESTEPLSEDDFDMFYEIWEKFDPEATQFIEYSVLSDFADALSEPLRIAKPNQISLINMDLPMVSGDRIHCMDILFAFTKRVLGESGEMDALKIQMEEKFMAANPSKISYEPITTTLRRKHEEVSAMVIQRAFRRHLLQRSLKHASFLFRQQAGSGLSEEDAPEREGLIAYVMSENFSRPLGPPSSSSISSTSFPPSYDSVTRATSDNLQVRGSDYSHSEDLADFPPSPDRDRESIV

| SMILES | IC50 ([1]; use-dependent block) [µM] | IC50 ([2]; use-dependent block) [µM] | IC50 ([3]; use-dependent block) [µM] | IC50 ([1]; use-dependent, […]) [µM] | IC50 ([2]; use-dependent, […]) [µM] | IC50 ([3]; use-dependent, […]) [µM] |
| --- | --- | --- | --- | --- | --- | --- |
| CC[C@H](C)[C@@H]1NC(=O)[C@@H]2CSSC[C@@H]3NC(=O)[C@H](C(C)C)NC(=O)[C@H](CC(C)C)NC(=O)[C@H](CC(N)=O)NC(=O)[C@@H]4CCCN4C(=O)[C@H](CCCNC(=N)N)NC(=O)[C@H](CSSC[C@H](NC(=O)[C@@H](N)CC(=O)O)C(=O)N[C@@H](CC(C)C)C(=O)NCC(=O)N[C@@H](C)C(=O)N[C@@H](Cc4cn(CCOCCOCCOCCOCCOCCOCCOCCOCCOCCOCCN)nn4)C(=O)N[C@@H](CCCNC(=N)N)C(=O)N[C@@H](CCCCN)C(=O)N2)NC(=O)[C@H](CSSC[C@@H](C(=O)N[C@@H](CCCCN)C(=O)N[C@@H](Cc2ccc(O)cc2)C(=O)N[C@H](C(=O)N[C@@H](Cc2ccccc2)C(N)=O)C(C)C)NC(=O)[C@H](Cc2c[nH]c4ccccc24)NC(=O)[C@H](CCCCN)NC(=O)[C@H](Cc2c[nH]cn2)NC(=O)[C@H]([C@@H](C)O)NC(=O)[C@H](CCCNC(=N)N)NC(=O)[C@H](CO)NC3=O)NC(=O)[C@H](CCCCN)NC(=O)[C@H](CC(=O)O)NC(=O)[C@H](CC(N)=O)NC(=O)[C@H](CC(=O)O)NC(=O)[C@@H]2CCCN2C1=O [compound 565] | ≥ 5 | > 5 | > 5 | – | – | – |
| CC[C@H](C)[C@@H]1NC(=O)[C@@H]2CSSC[C@@H]3NC(=O)[C@H](C(C)C)NC(=O)[C@H](CC(C)C)NC(=O)[C@H](CC(N)=O)NC(=O)[C@@H]4CCCN4C(=O)[C@H](CCCNC(=N)N)NC(=O)[C@H](CSSC[C@H](NC(=O)[C@@H](N)CC(=O)O)C(=O)N[C@@H](CC(C)C)C(=O)NCC(=O)N[C@@H](C)C(=O)N[C@@H](Cc4ccccc4)C(=O)N[C@@H](CCCNC(=N)N)C(=O)N[C@@H](CCCCN)C(=O)N2)NC(=O)[C@H](CSSC[C@@H](C(=O)N[C@@H](CCCCN)C(=O)N[C@@H](Cc2ccc(O)cc2)C(=O)N[C@H](C(=O)N[C@@H](Cc2ccccc2)C(N)=O)C(C)C)NC(=O)[C@H](Cc2c[nH]c4ccccc24)NC(=O)[C@H](CCCCN)NC(=O)[C@H](Cc2c[nH]cn2)NC(=O)[C@H]([C@@H](C)O)NC(=O)[C@H](Cc2cn(CCOCCOCCOCCOCCOCCOCCOCCOCCOCCOCCN)nn2)NC(=O)[C@H](CO)NC3=O)NC(=O)[C@H](CCCCN)NC(=O)[C@H](CC(=O)O)NC(=O)[C@H](CC(N)=O)NC(=O)[C@H](CC(=O)O)NC(=O)[C@@H]2CCCN2C1=O [compound 574] | 0.9 | > 5 | 1.6 | – | – | – |
| CC[C@H](C)[C@@H]1NC(=O)[C@@H]2CSSC[C@@H]3NC(=O)[C@H](C(C)C)NC(=O)[C@H](CC(C)C)NC(=O)[C@H](CC(N)=O)NC(=O)[C@@H]4CCCN4C(=O)[C@H](CCCNC(=N)N)NC(=O)[C@H](CSSC[C@H](NC(=O)[C@@H](N)Cc4cn(CCOCCOCCOCCOCCOCCOCCOCCOCCOCCOCCN)nn4)C(=O)N[C@@H](CC(C)C)C(=O)NCC(=O)N[C@@H](Cc4ccccc4)C(=O)N[C@@H](Cc4ccccc4)C(=O)N[C@@H](CCCNC(=N)N)C(=O)N[C@@H](CCCCN)C(=O)N2)NC(=O)[C@H](CSSC[C@@H](C(=O)N[C@@H](CCCCN)C(=O)N[C@@H](Cc2ccc(O)cc2)C(=O)N[C@H](C(=O)N[C@@H](Cc2ccccc2)C(N)=O)C(C)C)NC(=O)[C@H](Cc2c[nH]c4ccccc24)NC(=O)[C@H](CCCCN)NC(=O)[C@H](Cc2c[nH]cn2)NC(=O)[C@H]([C@@H](C)O)NC(=O)[C@H](CCCNC(=N)N)NC(=O)[C@H](CO)NC3=O)NC(=O)[C@H](CCCCN)NC(=O)[C@H](CC(=O)O)NC(=O)[C@H](CC(N)=O)NC(=O)[C@H](CC(=O)O)NC(=O)[C@@H]2CCCN2C1=O [compound 533] | 0.041 | 6.91 | 0.019 | – | – | – |
| CC[C@H](C)[C@@H]1NC(=O)[C@@H]2CSSC[C@@H]3NC(=O)[C@H](C(C)C)NC(=O)[C@H](CC(C)C)NC(=O)[C@H](CC(N)=O)NC(=O)[C@@H]4CCCN4C(=O)[C@H](CCCNC(=N)N)NC(=O)[C@H](CSSC[C@H](NC(=O)[C@@H](N)CC(=O)O)C(=O)N[C@@H](CC(C)C)C(=O)NCC(=O)N[C@@H](C)C(=O)N[C@@H](Cc4ccccc4)C(=O)N[C@@H](CCCNC(=N)N)C(=O)N[C@@H](CCCCN)C(=O)N2)NC(=O)[C@H](CSSC[C@@H](C(=O)N[C@@H](CCCCN)C(=O)N[C@@H](Cc2ccc(O)cc2)C(=O)N[C@H](C(=O)N[C@@H](Cc2ccccc2)C(=O)N[C@@H](Cc2c[nH]c4ccccc24)C(=O)N[C@@H](Cc2cn(CCOCCOCCOCCOCCOCCOCCOCCOCCOCCOCCN)nn2)C(N)=O)C(C)C)NC(=O)[C@H](Cc2c[nH]c4ccccc24)NC(=O)[C@H](CCCCN)NC(=O)[C@H](Cc2c[nH]cn2)NC(=O)[C@H]([C@@H](C)O)NC(=O)[C@H](CCCNC(=N)N)NC(=O)[C@H](CO)NC3=O)NC(=O)[C@H](CCCCN)NC(=O)[C@H](CC(=O)O)NC(=O)[C@H](CC(N)=O)NC(=O)[C@H](CC(=O)O)NC(=O)[C@@H]2CCCN2C1=O [compound 580] | 1.2 | > 5 | 0.77 | – | – | – |
| CC[C@H](C)[C@@H]1NC(=O)[C@@H]2CSSC[C@@H]3NC(=O)[C@H](C(C)C)NC(=O)[C@H](CC(C)C)NC(=O)[C@H](CC(N)=O)NC(=O)[C@@H]4CCCN4C(=O)[C@H](CCCNC(=N)N)NC(=O)[C@H](CSSC[C@H](NC(=O)[C@@H](N)CC(=O)O)C(=O)N[C@@H](CC(C)C)C(=O)NCC(=O)N[C@@H](Cc4ccccc4)C(=O)N[C@@H](Cc4ccccc4)C(=O)N[C@@H](CCCNC(=N)N)C(=O)N[C@@H](CCCCN)C(=O)N2)NC(=O)[C@H](CSSC[C@@H](C(=O)N[C@@H](CCCCN)C(=O)N[C@@H](Cc2ccc(O)cc2)C(=O)N[C@H](C(=O)N[C@@H](Cc2cn(CCOCCOCCOCCOCCOCCOCCOCCOCCOCCOCCN)nn2)C(N)=O)C(C)C)NC(=O)[C@H](Cc2c[nH]c4ccccc24)NC(=O)[C@H](CCCCN)NC(=O)[C@H](Cc2c[nH]cn2)NC(=O)[C@H]([C@@H](C)O)NC(=O)[C@H](CCCNC(=N)N)NC(=O)[C@H](CO)NC3=O)NC(=O)[C@H](CCCCN)NC(=O)[C@H](CC(=O)O)NC(=O)[C@H](CC(N)=O)NC(=O)[C@H](CC(=O)O)NC(=O)[C@@H]2CCCN2C1=O [compound 548] | ≥ 5 | > 5 | 1.6 | – | – | – |
| CC[C@H](C)[C@@H]1NC(=O)[C@@H]2CSSC[C@@H]3NC(=O)[C@H](C(C)C)NC(=O)[C@H](CC(C)C)NC(=O)[C@H](CC(N)=O)NC(=O)[C@@H]4CCCN4C(=O)[C@H](CCCNC(=N)N)NC(=O)[C@H](CSSC[C@H](NC(=O)[C@@H](N)CC(=O)O)C(=O)N[C@@H](CC(C)C)C(=O)NCC(=O)N[C@@H](Cc4ccccc4)C(=O)N[C@@H](CCSC)C(=O)N[C@@H](CCCNC(=N)N)C(=O)N[C@@H](CCCCN)C(=O)N2)NC(=O)[C@H](CSSC[C@@H](C(=O)N[C@@H](CCCCN)C(=O)N[C@@H](Cc2ccc(O)cc2)C(=O)N[C@H](C(=O)N(C)[C@@H](Cc2c[nH]c4ccccc24)C(N)=O)C(C)C)NC(=O)[C@H](Cc2c[nH]c4ccccc24)NC(=O)[C@H](CCCCN)NC(=O)[C@H](Cc2c[nH]cn2)NC(=O)[C@H]([C@@H](C)O)NC(=O)[C@H](CCCNC(=N)N)NC(=O)[C@H](CO)NC3=O)NC(=O)[C@H](CCCCN)NC(=O)[C@H](CC(=O)O)NC(=O)[C@H](CC(N)=O)NC(=O)[C@H](CC(=O)O)NC(=O)[C@@H]2CCCN2C1=O [compound 407] (H-DCLGFMRKCIPDNDKCCRPNLVCSRTHKWCKYV[NMeW]-NH2; disulfide 2-17, 9-23, 16-30) | – | – | – | 6.85 | 10.2 | 4.64 |
